Our source for the TGI and GI50 values is PubChem BioAssay (NCI).

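1) Cells in 96-well plates. 2) Compound, 48 h, 5 concentrations. 3) Linear interpolation between surrounding doses. 4) Unreached endpoint = highest concentration. GI50 = concentration required for 50% inhibition of growth. The concentration for full growth arrest is given as TGI.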

For the assay, the system named is NCI-H322M lung. As to the kind of experiment: NCI anticancer screen, dose series, 48 h.
Molecule `COc1ccc(/C=C/C(=O)c2cc(C(C)(C)C)c(O)c(C(C)(C)C)c2)cc1OC` registered a TGI of more than 100 µM. As to `O=[N+]([O-])c1ccc(Oc2nc(Nc3ccc(O[C@H]4CO[C@H]5[C@@H]4OC[C@@H]5O)c(Cl)c3)ncc2F)c(Cl)c1`, the GI50 is 0.75 µM and the TGI was determined as 4.87 µM. With `O=c1[nH]c(=O)n(C2CC(O)C(CO)O2)cc1NN=NCCCc1ccccc1` (stereo not drawn), the TGI is more than 100 µM. In the case of `Nc1nc(N)c(C=Nc2ccc(Br)cc2)c(Nc2ccc(Br)cc2)n1`, the GI50 is 5.48 µM and the TGI turned out to be 22.5 µM. Turning to `O=C(CSc1ncn[nH]1)C[P+](c1ccccc1)(c1ccccc1)c1ccccc1`, the TGI was more than 100 µM. `N#Cc1c(Br)n(C2OC(CO)C(O)C2O)c2ncnc(N)c12` (stereo not drawn): the GI50 is 4.56 µM and the TGI was more than 45.1 µM. `O=C(/C=C/c1ccco1)c1ccc(NCc2nc3ccccc3[nH]2)cc1` had a TGI of 21.5 µM. Consider `COc1ccc(-c2ccc(-c3ccc(C(=N)N)nc3)s2)cc1Cl`, for which the GI50 was 1.67 µM and the TGI turned out to be 3.04 µM. As for `CC(=O)c1c(CN(C)c2ccccc2)n([O-])c2ccccc2[n+]1=O`, the GI50 is 32.9 µM and the TGI was more than 100 µM. The molecule `CN(C)c1ccc(/C=C/c2ccc(/C=C/c3ccc(N(C)C)cc3)cc2)cc1` registered a TGI of more than 100 µM. `CC1(C)C(=O)c2ccccc2OC1N1CCN(C2Oc3ccccc3C(=O)C2(C)C)CC1` (stereo not drawn) returned a TGI of more than 100 µM. With `O=C(O)C[C@@H]1[C@@H](O)[C@@H](O)CN2C(=O)c3ccccc3[C@H]12`, the TGI was more than 100 µM. On the same count and under the same terms, under `O=C1Nc2ccccc2Cn2c1cc1oc(-c3ccccc3)cc12` stands more than 100 µM; under `CSC1C(=O)Nc2ccc3ccccc3c21` (stereo not drawn), more than 100 µM. `CC1(C)C(CCO)CC1n1cc(I)c(=O)[nH]c1=O` (stereo not drawn) came in with a TGI of more than 100 µM. In the case of `CCCCCc1nnc(NS(=O)(=O)c2ccc(NC(=O)OCC(C)C)cc2)s1`, the TGI is more than 100 µM. Turning to `C=CC(OC(C)=O)c1ccc(OC(=O)C(C)C)c(OC)c1` (stereo not drawn), the TGI was determined as 12.2 µM.

In turn, `COP(=O)(OC)C(NC(=O)C(F)(F)F)(c1ccccc1)C(F)(F)F` (stereo not drawn) registered a TGI of more than 100 µM. On the same count and under the same terms, then `N#CC1CCCCOCCOCCOCCOCCOCCCCCC1=O` (stereo not drawn), with more than 100 µM. Turning to `COC(=O)[C@H]1NC(=O)CCSSC1(C)C`, the TGI was more than 100 µM.

In the case of `Cc1cn(C2CC(N)C(C(=O)NCC(=O)O)O2)c(=O)[nH]c1=O` (stereo not drawn), the TGI was more than 100 µM. The same measure, in the same setting: then `S=C(Nc1ccc(N=Nc2ccccc2)cc1)SCc1ccccc1`, with 26.9 µM. The molecule `CCCCCCCC(CC(=O)NC(CO)C(=O)NC(CO)CC(C)C)OC(=O)CC(CCCCCCC)OC(=O)CC(CCCCCCC)OC1OC(C)C(O)C(OC2OC(C)C(O)C(O)C2OC(C)=O)C1O` (stereo not drawn) came in with a TGI of 23.4 µM.
